Data as given in the supplement of paper PMC12632987.
The full ranking holds about 4,500 sequences; the median of “median log2 fold change of GCK-ALFA target abundance (FLAG IP / Myc IP barcode read proportion)” is about 0.078, and the lowest 2% start at about -0.6. This is one part of the list.

B1: GBRAP_39_5688 (protein)
chain: EKEEENENVVSYLEGVAAKYLYTTGISLEEAIERAKKILEKYAKENPELKELVEELIEIAEEKGEEAKLVLIGIAVEIEKGTPKEEIKEKIEKAIEYFKS
B2: GBRAP_9_7151 (protein)
chain: MEELFKKVKEILEDAFEEVKEVVPEEVKPIVDEKREEVLKRLEELAKDPNVTKEELKEEAKELVDEFEEAIKEKVDEETAKMVEAIALTAKLEIEEVAEE
B3: GBRAP_128_3299 (protein)
chain: MPEEVRRRVEELVERIRTGDPEERRAAAEELARLMREVDLETAEAIAEIIEEAIPELSKEALEILAEVLDAARPELDPEKRALAADVASEALLEAEKLEE
B4: GBRAP_160_4629 (protein)
chain: SAKLEEALKLVDEAAEFVKSMIPEVTVEEFAHGFEAEFGSVILYLEEEGLISEETADKMMKIVDDTVAYLLANPDLTDEERKALVDEAREKMKEVIKEDY
B5: GBRAP_128_3491 (protein)
chain: STAAAVARTRELLARIGEADAEEAAALTREIVALLASADPETREAIAEVIESRLPELSREKLLTIADTLEEQMPSLDPETANLVAGIQVAALNEALEKEE
B6: GBRAP_95_7015 (protein)
chain: EDDQLAADSLAEVLETAVDLGDEEAAARAARRLVALLVAHPEVRFPADLSPESAAVVLRAARETLSREDALRVAERLAASAADPEVRALARAAAAELRAE
B7: GBRAP_74_6539 (protein)
chain: SEEKIKKIEELLKEGKFLEAAELTKEIIENEDKETAIEAMNVLLDGVLANKDKLTLEEAEAVADAIVLLFEKVDDEDLSDDLWDKINAVLAAIIALEKAA
B8: GBRAP_128_3194 (protein)
chain: VSPAALAALRALAADVIATKSDAAIAAFAEAVAAALKAGQIDLDALEAVVAALGEGLDADTLDRVADALAAALADVGPEARAVALGTLGEKIYEKEEEEE

Biological target: GABARAP, O95166
Sequence (O95166 whole entry, the tested form may be a part): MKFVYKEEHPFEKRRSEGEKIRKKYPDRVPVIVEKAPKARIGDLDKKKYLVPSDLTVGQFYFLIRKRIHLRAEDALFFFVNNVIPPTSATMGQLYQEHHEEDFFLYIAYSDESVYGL
Assay: median log2 fold change of GCK-ALFA target abundance (FLAG IP / Myc IP barcode read proportion) (log2 ratio); each designed protein is fused to an ALFA-tag nanobody in HEK293 cells to bring the named protein to FLAG-tagged glucokinase (GCK); Myc marks an untargeted standard; higher = target protein stabilised (more abundant)
Settings: target protein: 3xFLAG-MCP-GCK-ALFA reporter; HEK293 landing pad (RPLP)
In short: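 The readout is target abundance, the per-binder median log2 ratio of FLAG to Myc barcode read proportions. It came from HEK293 landing-pad cells carrying a recombined ALFA-nanobody-fused binder library, induced with 2 μg mL^−1 doxycycline and transfected with a plasmid for a FLAG-tagged target and a Myc-tagged standard. After 48 h, lysates were immunoprecipitated with anti-FLAG and anti-Myc, and circular RNA barcodes were reverse transcribed, amplified and sequenced. Each barcode needed a proportion of at least 10^−7 in both replicates and each binder at least 3 barcodes per replicate, a pseudocount of 10^−6 was added, and the replicates were pooled.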

| Binder | median log2 fold change |
| --- | --- |
| B1 | 0.213 |
| B2 | 0.225 |
| B3 | 0.0976 |
| B4 | 0.0451 |
| B5 | 0.217 |
| B6 | 0.197 |
| B7 | -0.27 |
| B8 | -0.0769 |
